Here are results for 1 compound from patent publication US20230414619A1 (priority 2020, published 2023).

For the experiment, the system named is Raw 264.7 cells. Put plainly: AACT/SILAC pulse-labeling translatome: protein turnover rates. Format: cell-based, mouse. On the procedure: G9a KO, control and (1 μM) UNC0642 treated control cells were either untreated (N) or treated with low dose (100 ng/ml) LPS to induce endotoxin tolerance. The cells were washed with PBS twice to remove light medium (KORO), and then switched to heavy AACT DMEM medium containing stable isotope-enriched D4-lysine and ^13C6-arginine to label newly synthesized proteins. The cells were harvested at 2 h, 4 h, 8 h, 24 h, 48 h, and 72 h, and lysed in 8 M urea containing 50 mM Tris-HCl pH 8.0. One hundred micrograms protein from each condition was digested with trypsin, desalted, and fractionated with C18 material (High pH) into eight fractions followed by LC-MS/MS analysis.
To correct for errors introduced during sample-preparation/data-acquisition, protein intensities were normalized based on the premise that the sum of KO/RO (M) and the K4/R6 (H) intensities should be constant across different time-points. After normalization, curves for estimation of turnover rates, determined from the kinetics of AACT label incorporation or loss, were fitted based on the assumption of exponential protein degradation (or synthesis) and constant offset (γ).
Proteins identified in at-least 4 out of 6 time points were selected for curve fitting using the model described above. […]

`COc1cc2c(NC3CCN(C(C)C)CC3)nc(N3CCC(F)(F)CC3)nc2cc1OCCCN1CCCC1` [UNC0642]: under “T (endotoxin tolerance) condition, 1 μM, wild type range in T starts at 24.8 h, FIG. 4C”, the “median protein half-life (global protein turnover)” value is 26.9 h. In addition, the “synthesis or turnover of G9a-translated proteins” value (macrophages, 1 μM UNC0642) is “decreased”.
